B1: GBRAP_52_6201 (protein)
chain: MRERARRLAQEVFDAVKAGDLERARALLRELAREKDPELLELFAEELAELALTVAPEDLDAVFEAAELAEEVFLEEGVPEELADEFLARVAAALYEREQA
B2: GBRAP_117_2580 (protein)
chain: EEERERVRERLRRTVREAGEELRAAQALSPEERARVRERVRERIREAVREAVEVLSVEEVLDIVEETLLEFDAEVYFEIMLFVEEALEEIREEREREEAE
B3: GBRAP_74_6566 (protein)
chain: SEELIEEIKEVAENKSIKEFSEYILEHIDELDEESLLVALKKLLEKLEEEEDEITEEEAELVAEAAAALADKAFTSDASRETLEAAKKLIEKVIEIEKKL
B4: GBRAP_78_6631 (protein)
chain: EVEELIDEALEELGEAARLAKKLPEEDRNEVLDLIVEASSYLLESEEEGFDLELLEKALKYAEEALELVKKIDDPEAEKLKEELEKAIELLKKAIELVKK
B5: GBRAP_57_6445 (protein)
chain: SERLKKAEELAKKIKEALEEGAPLEEIEELFEKLLDLLSEETLLDIALILDPSTDPDASREEIKERLLELFRRAVEEEGKEAAKRMVDLAVGQLEMEEIE
B6: GBRAP_166_4938 (protein)
chain: SVEEALERLRELIEKAIEEMKTANAEERTELAIEVGEALREAREAGVPLEELLEAVREYLEGVKELGWNIKIFAGIIINEADFSEEEIDKVWEIVEEILK
B7: GBRAP_160_4670 (protein)
chain: EEEIEELLRELEEIMEEAVEMMEGESLEERVAVARVMTGEVILLLEESPLATDEVIETADELGDELVAYIRAHPDATPEEIRAKLEEVLERIREKLLEEV
B8: GBRAP_11_2833 (protein)
chain: KKEKLKELAEKAEEVAKELEALIASGAPTEEQLQALLKKAKELLEEVKEYGDESLEKIAEIALELIEKAIADPERQKEYLEEALAAARVLAGQYKLELEE
B9: GBRAP_125_2989 (protein)
chain: AEEQALADLAAVLAALGFSPEDVEEAVALARKHGLRGTLYAAMLALGHDELADLVAQLTEEQTRAVLAAVAAWLEAHPDATPEEVVAHLTAVARAELARA
B10: GBRAP_95_7064 (protein)
chain: EEDLEIAEDLIDTAEDLVEIGLYEQAARAAKAAVEELKEIGYTGELALRAAEVLVKVAEATGNEEAAELAKEVLEEIRKAGGDEKKIEELEKRLEKALKK
B11: GBRAP_184_5297 (protein)
chain: KVVDKVIEAETAEEAIKKIEEVAKEAKEKGVKVNLYLFLKNVSVEGFKKIAEKLKELKEKGLIEEATVVVEDEVSEEELDKLVEIADKAGVRLVVALSDE
B12: GBRAP_160_4649 (protein)
chain: MESLEEILEIIDEYSEIAKEAIDAGDLANAIAAMRMMTGDVVLEADEDPRFSEEDVDELDELGDEGVERLEAAADASPEELKALVDETTERLKKKVKEFY
B13: GBRAP_125_3103 (protein)
chain: EEEELLEALKALALALGFSEEDAEEAAELARRFSLKNTLIAILLAEGEEELAELVEKLTEEQAKEVLKKLAEWLKENPNASKEEVIKKLKELVEEALKKA
B14: GBRAP_160_4182 (protein)
chain: SEKVKEAEKEIEEIFEEAIKMMKGQSAEERANIARVAFGEILLLLEEKGLLTDELGEKIREIEDEVVTTILENPDLTDEELEKLLKEARDKVLKLLRESS
B15: GBRAP_122_2940 (protein)
chain: AELRARAEALLAAMVAALAAGDEAGLAALARELVELFGEVSPEEARATVEALLARLAGDPAATERALRALLAAFTELVPQNEAQEAAADVVAAAFDELSE
B16: GBRAP_57_6463 (protein)
chain: MSPLEKALKYFEEAIALVEAGAPLEEVLEKVEKGLELLDRTTLLDILLLLDPSTRSDLSKEELRRRILELVRRALEEEGREAALERLRLMAGQVEMDLLD
B17: GBRAP_52_6068 (protein)
chain: SEAKLDALAQAIAAAIAAGDLEKAKALIKEAIKTLSVEEIKAMLVRAAELVAALGEEAEERFVDLLDEAEDMMLEAGISEEDALLIVGDAEAALARAVAA
B18: GBRAP_14_3774 (protein)
chain: MEEAIKILKETAKEIVALLAEINPALAAEFAAAVDEVVKETIERIKETGDALKAAEEGRERLVARVREILADEPAEVRARAVAVVEVEFGQAILELDELE
B19: GBRAP_139_3690 (protein)
chain: SALAEKLAEAAALARRAAAEGEEALRALARFLASLSPEERERAAAAIGEVALALPFDEAEAFYDALIRIAREELGDEDLAEILEAERNRTLAQIAVREEA

Whole data set: some 4,500 sequences, median “median log2 fold change of GCK-ALFA target abundance (FLAG IP / Myc IP barcode read proportion)” near 0.078, cut for the lowest 2% near -0.6. The list shows a part of the results.

GABARAP, O95166, sequence (O95166 whole entry, the tested form may be a part): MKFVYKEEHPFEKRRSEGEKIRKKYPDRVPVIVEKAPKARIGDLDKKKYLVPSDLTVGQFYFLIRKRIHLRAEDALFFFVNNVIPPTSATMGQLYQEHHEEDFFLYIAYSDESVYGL

The assay concerns the target GABARAP, O95166. The assay is described as follows: median log2 fold change of GCK-ALFA target abundance (FLAG IP / Myc IP barcode read proportion) (log2 ratio); each designed protein is fused to an ALFA-tag nanobody in HEK293 cells to bring the named protein to FLAG-tagged glucokinase (GCK); Myc marks an untargeted standard; higher = target protein stabilised (more abundant). The conditions noted are these: target protein: 3xFLAG-MCP-GCK-ALFA reporter; HEK293 landing pad (RPLP). The procedure, abridged: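 An ALFA-nanobody-fused binder library was recombined into HEK293 landing-pad cells and induced with 2 μg mL^−1 doxycycline. Cells were transfected with a plasmid expressing a FLAG-tagged target and a Myc-tagged standard. After 48 h, lysates underwent anti-FLAG and anti-Myc immunoprecipitation, and circular RNA barcodes were reverse transcribed, amplified and sequenced. Target abundance is the per-binder median log2 ratio of FLAG to Myc barcode read proportions. Barcodes needed ≥10^−7 proportion in both replicates, binders ≥3 barcodes per replicate, and a 10^−6 pseudocount was added; the two replicates were pooled.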
Take B1: the “median log2 fold change” value is -0.0612.

As for B2, the “median log2 fold change” value turned out to be 0.192.

Regarding B3, the “median log2 fold change” value was -0.133.

Consider B4, for which the “median log2 fold change” value is -0.0779.

As for B5, the “median log2 fold change” value came to 0.197.

Take B6: the “median log2 fold change” value was determined as 0.0436.

As to B7, the “median log2 fold change” value is -0.298.

For the molecule B8, the “median log2 fold change” value is 0.24.

For B9, the “median log2 fold change” value is -0.0893.

Turning to B10, the “median log2 fold change” value came to 0.373.

As for B11, the “median log2 fold change” value was -0.147.

For the molecule B12, the “median log2 fold change” value was -0.255.

Regarding B13, the “median log2 fold change” value is -1.16.

As for B14, the “median log2 fold change” value is 0.117.

For the molecule B15, the “median log2 fold change” value worked out at 0.246.

B16: the “median log2 fold change” value stood at 0.173.

B17: the “median log2 fold change” value is -0.282.

B18: the “median log2 fold change” value came to 0.141.

Consider B19, for which the “median log2 fold change” value is 0.342.

The record behind these values is the supplement of paper PMC12632987.
